The values below come from PMC12820563.

The other results are listed elsewhere or left out. The list includes weakly bound sequences.

This test has as its target T1, MBP-FoxP3dN (UniProt Q99JB6).
T1 sequence: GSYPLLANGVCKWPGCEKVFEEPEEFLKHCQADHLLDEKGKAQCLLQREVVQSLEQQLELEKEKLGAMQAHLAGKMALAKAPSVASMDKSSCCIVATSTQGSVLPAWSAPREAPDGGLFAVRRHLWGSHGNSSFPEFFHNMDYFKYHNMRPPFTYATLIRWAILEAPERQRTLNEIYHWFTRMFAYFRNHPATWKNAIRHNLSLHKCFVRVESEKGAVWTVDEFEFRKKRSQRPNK
As to the kind of experiment: PD-seq (MBP pull-down with sequencing). The conditions noted are these: 20 mM Tris-HCl pH 7.5, 100 mM NaCl, 1.5 mM MgCl2, 0.4 uM protein, 0.1 uM dsDNA library, 30 min, room temperature, amylose pull-down; high values mean tight binding; double strand, one strand shown.
Take “GATGATTGTTCTCCCAGCTGATGAATTCTTAATCTCGAGTAAACAAATTTTCCTAATCTTTCTGTTCAAGCGCCATCTAC”: the binding signal (RPM ratio (pull-down/input)) turned out to be 0.28.
Regarding “GATGATTGTTCTCCCAGCTGATGAATTCAACGATTCGAGTAAACAAATTTTCCTAATCTTTCTGTTCAAGCGCCATCTAC”, the binding signal (RPM ratio (pull-down/input)) amounted to 0.338.
In the case of “GATGATTGTTCTCCCAGCTGATGAATTCCAGGGTTCGAGTAAACAAATTTTCCTAATCTTTCTGTTCAAGCGCCATCTAC”, the binding signal (RPM ratio (pull-down/input)) stood at 0.235.
As to “GATGATTGTTCTCCCAGCTGATGAATTCCTCGAATCGAGTAAACAAATTTTCCTAATCTTTCTGTTCAAGCGCCATCTAC”, the binding signal (RPM ratio (pull-down/input)) was 0.197.
As for “GATGATTGTTCTCCCAGCTGATGAATTATCACGATCGAGTAAACAAATTTTCCTAATCTTTCTGTTCAAGCGCCATCTAC”, the binding signal (RPM ratio (pull-down/input)) is 0.291.
In the case of “GATGATTGTTCTCCCAGCTGATGAATTTCTGTACTCGAGTAAACAAATTTTCCTAATCTTTCTGTTCAAGCGCCATCTAC” it was 0.473; in that of “GATGATTGTTCTCCCAGCTGATGAATTCCAAATTTCGAGTAAACAAATTTTCCTAATCTTTCTGTTCAAGCGCCATCTAC”, 0.283.
Regarding “GATGATTGTTCTCCCAGCTGATGAATTGGGCAAGTCGAGTAAACAAATTTTCCTAATCTTTCTGTTCAAGCGCCATCTAC”, the binding signal (RPM ratio (pull-down/input)) was determined as 1.04.
Consider “GATGATTGTTCTCCCAGCTGATGAATTATGGTAGTCGAGTAAACAAATTTTCCTAATCTTTCTGTTCAAGCGCCATCTAC”, for which the binding signal (RPM ratio (pull-down/input)) is 0.703.
On to “GATGATTGTTCTCCCAGCTGATGAATTTACCAGGTCGAGTAAACAAATTTTCCTAATCTTTCTGTTCAAGCGCCATCTAC”, for which the binding signal (RPM ratio (pull-down/input)) came out at 0.315.
In the case of “GATGATTGTTCTCCCAGCTGATGAATTCTGTCCTTCGAGTAAACAAATTTTCCTAATCTTTCTGTTCAAGCGCCATCTAC” it was 0.999; in that of “GATGATTGTTCTCCCAGCTGATGAATTTAGTAGATCGAGTAAACAAATTTTCCTAATCTTTCTGTTCAAGCGCCATCTAC”, 0.483; in that of “GATGATTGTTCTCCCAGCTGATGAATTGCCGAGATCGAGTAAACAAATTTTCCTAATCTTTCTGTTCAAGCGCCATCTAC”, 0.367.
With “GATGATTGTTCTCCCAGCTGATGAATTGCTCTCCTCGAGTAAACAAATTTTCCTAATCTTTCTGTTCAAGCGCCATCTAC”, the binding signal (RPM ratio (pull-down/input)) came to 0.424.
For “GATGATTGTTCTCCCAGCTGATGAATTTTGGAGCTCGAGTAAACAAATTTTCCTAATCTTTCTGTTCAAGCGCCATCTAC”, the binding signal (RPM ratio (pull-down/input)) was determined as 0.219.
Under “GATGATTGTTCTCCCAGCTGATGAATTACGAACATCGAGTAAACAAATTTTCCTAATCTTTCTGTTCAAGCGCCATCTAC” stands 0.543; under “GATGATTGTTCTCCCAGCTGATGAATTGTAATCGTCGAGTAAACAAATTTTCCTAATCTTTCTGTTCAAGCGCCATCTAC”, 0.983; under “GATGATTGTTCTCCCAGCTGATGAATTCTACGACTCGAGTAAACAAATTTTCCTAATCTTTCTGTTCAAGCGCCATCTAC”, 0.299.
